This series concerns the molecule itself. The series is described as follows: SEC. Background: Size exclusion chromatography separates by hydrodynamic size, large species first.

Usually stoichiometry N stands for the number of molecules, sites or subunits per partner or assembly.

B1: E. coli DegS (residues 27–355) lacking the wild-type membrane anchor, N-terminal His6 tag (enzyme, UniProt P0AEE3 27-355, looked up)
chain: RSLNPLSTPQFDSTDETPASYNLAVRRAAPAVVNVYNRGLNTNSHNQLEIRTLGSGVIMDQRGYIITNKHVINDADQIIVALQDGRVFEALLVGSDSLTDLAVLKINATGGLPTIPINARRVPHIGDVVLAIGNPYNLGQTITQGIISATGRIGLNPTGRQNFLQTDASINHGNSGGALVNSLGELMGINTLSFDKSNDGETPEGIGFAIPFQLATKIMDKLIRDGRVIRGYIGIGGREIAPLHAQGGGIDQLQGIVVNEVSPDGPAANAGIQVNDLIISVDNKPAISALETMDQVAEIRPGSVIPVVVMRDDKQLTLQVTIQEYPATN
On to B1, for which the “stoichiometry N” value came out at 3.

The values above are taken from publication PMC2742306 (Molecular cell, 2009).
